About 5,300 (4.4%) of roughly 120,000 compounds were called active. This list was built around the results that the source calls inconclusive (neither active nor inactive); the mix of calls is not that of the screen. The call rests on the fitted dose curve; in most records, active means well fitted inhibition curve with a large enough effect; inconclusive means small, poorly fitted or top-dose-only effect; inactive means no such curve, though single readings can be large or run the other way. Where the call is inconclusive, the potency comes from a doubtful curve fit.
experiment: qHTS Primary assay for Inhibitors of Plasmodium falciparum Dd2 growth in vitro; further: nearly all actives have a fitted effect of over 65% in size;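 on activity, negative = inhibition: plate controls were DMSO vehicle for no effect and reference drug for full effect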; settings: P. falciparum Dd2 growth, SYBR Green, 72 h; activity, negative = inhibition: at 28.9 µM (top of the series) unless noted; series mostly up to 28.9 µM
Outline: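 Readout: SYBR Green fluorescence, 485 nm excitation, 535 nm emission, after ~16 h lysis at 37C. Before that, Dd2-infected red cells (2.5% hematocrit) grew 72 h with compound, 29 uM top final concentration.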
Potency means the concentration at half of the fitted maximal effect; tags describe the fitted curve by direction and shape.

| Compound | Potency | activity, negative = inhibition |
| --- | --- | --- |
| Cc1cc(F)ccc1NC(=O)CCS(=O)(=O)c1cc2c3c(c1)CCN3C(=O)CC2 | inactive |  |
| CCCOc1ccc(CNC(=O)[C@H]2CCC[C@H]2NC(=O)c2ccc(OC)cc2)cc1 | inconclusive: 7.94 µM [inhibitor, partial curve] |  |
| CCCCc1cn([C@@H]2CN[C@H](C(=O)O)C2)nn1 | inactive |  |
| CCOc1ccc2c(c1)c(=O)c(C(=O)c1ccccc1)cn2Cc1ccccc1F | inconclusive: 11.2 µM [inhibitor, partial curve, poor fit] |  |
| CCn1cnnc1CC1CCN(C(=O)c2[nH]nc3c2COc2ccccc2-3)CC1 | inconclusive: 17.8 µM [inhibitor, single point] |  |
| O=C(c1ccccc1OCC1CCCN(CC2=Cc3ccccc3OC2)C1)N1CCCCC1 (configuration not stated) | inconclusive: 11.2 µM [inhibitor, single point] |  |
| O=C(Nc1ccc(F)c(Cl)c1)c1cc(S(=O)(=O)NCc2ccc3c(c2)OCO3)ccc1F | inconclusive: 17.8 µM [inhibitor, single point] |  |
| CCOc1cccc2sc(N(Cc3cccnc3)C(C)=O)nc12 | inconclusive: 11.2 µM [inhibitor, single point] |  |
| CCCCN(CC)CCNC(=O)Cn1cnc2sc(C)c(S(=O)(=O)N3CCN(c4ccccc4OC)CC3)c2c1=O | inconclusive: 17.8 µM [inhibitor, single point] |  |
| CCOc1ccc(N2CC(c3nc4ccccc4n3CCOc3ccc(OC)cc3)CC2=O)cc1 (configuration not stated) | inconclusive: 12.6 µM [inhibitor, single point] |  |
| CCOc1ccc2nc(N3CCCC(C(=O)NCCc4ccc(OC)cc4OC)C3)sc2c1 (configuration not stated) | inconclusive: 17.8 µM [inhibitor, single point] |  |
| C[C@]1(CO)C2CC[C@@H](O)[C@@H](CC(=O)NCc3cccs3)[C@]2(C)CC[C@H]1OC(=O)Nc1cccc(F)c1 (some centres not stated) | inconclusive: 6.31 µM [inhibitor, partial curve] |  |
| O=C(Cc1cccc(F)c1)N1C[C@@H](CO)[C@H](c2nc(C3CC3)no2)C1 | inactive |  |
| CCOCCCNC(=O)c1ccc(-c2nc(CS(=O)(=O)c3ccccc3)c(C)o2)cc1 | inactive |  |
| CNC(=O)C1CCCN(c2nnc(C)c3c(C)n(-c4ccccc4)nc23)C1 (configuration not stated) |  | inconclusive: -62.5% [inhibitor] [at 5.79 µM] |
| COc1ccc(-c2nc3sc(CCNC(=O)C(C)(C)C)c(C)n3n2)cc1 | inconclusive: 3.16 µM [inhibitor, full curve, poor fit] |  |
| O=Cc1ccccc1-c1cccc(O)c1 | inactive |  |
| Cc1ccc(N2Cc3c(NCCc4ccc(F)cc4)ncnc3N(C)CC2=O)cc1 | inconclusive: 3.55 µM [inhibitor, partial curve, poor fit] |  |
| CC(C)Nc1ncc(C(=O)NC2CCCN(CCc3ccccc3)C2)cn1 (configuration not stated) | inconclusive: 8.91 µM [inhibitor, single point] |  |
| O=C(c1cccc2[nH]ccc12)N1CCC2(CC1)CN(c1ncccn1)CC2CO (configuration not stated) | inconclusive: 5.01 µM [inhibitor, partial curve, poor fit] |  |
| CC#CCn1cc2c3c(cccc31)[C@H](CC(C)C)N[C@H](C(=O)N1CCN(C)CC1)C2 | inconclusive: 3.98 µM [inhibitor, partial curve, poor fit] |  |

| Compound | Potency | activity, negative = inhibition |
| --- | --- | --- |
| Cc1ccc(C(C(=O)N2CCC(Cc3noc(C)n3)CC2)N(C)C)cc1 (configuration not stated) | inactive |  |
| Cc1oc(-c2ccc(NC(=O)Cc3ccccc3)cc2)nc1CNC(=O)c1ccc(-c2ccco2)cc1 | inactive |  |
| Cc1oc(-c2ccc(Cl)cc2)nc1CN1C(=O)CN=C(c2ccccc2)c2cc(Cl)ccc21 | inactive |  |
| CC(NC(=O)CCc1cn(Cc2ccccc2Cl)c2ccccc12)c1ccccc1 (configuration not stated) | inconclusive: 17.8 µM [inhibitor, single point] |  |
| O=C(NCCc1ccccc1)c1ccc(CSc2nc3cccnc3n2Cc2ccccc2)cc1 | inconclusive: 10 µM [inhibitor, single point] |  |
| COc1cccc(CCC(=O)N2CCC(CC(=O)NC3CC3)C2)c1 (configuration not stated) | inactive |  |
| Cc1ccc(NC(=O)N2CCCC(Cn3cnc4cccnc43)C2)c(C)c1 (configuration not stated) | inconclusive: 6.31 µM [inhibitor, partial curve, poor fit] |  |
| COc1ccc(CN2C=C(C(=O)OCc3nc(-c4cccc(OC)c4)no3)C(C)=NS2(=O)=O)cc1 | inconclusive: 12.6 µM [inhibitor, single point] |  |
| CC(C)[C@@H]1CN(S(=O)(=O)c2ccc(Cl)cc2Cl)C[C@H]1N(C)C | inconclusive: 2 µM [inhibitor, partial curve] |  |
| O=C(Nc1ncc(-c2cccc(F)c2)c2c1OCC2)c1ccc(F)c(Cl)c1 | inactive |  |
| CN(C)c1ccc(C(=O)NC[C@H]2O[C@@H](CO)[C@@H](O)[C@H]2N(C)CCc2ccccc2)cc1 | inconclusive: 15.8 µM [inhibitor, partial curve, poor fit] |  |
| COc1cccc(CN2CCOC3(CCN(Cc4cccc(Cl)c4)CC3)C2=O)c1 | inconclusive: 5.62 µM [inhibitor, single point] |  |
| CCC(CC)C(=O)N1C[C@@H]2CCCN3CCC[C@@H]([C@H]23)[C@H]1CCCC(=O)N1CCOCC1 | inconclusive: 20 µM [inhibitor, single point] |  |
| COc1ccc(-c2cnc([C@@H]3COCCN3C3CCCCC3)[nH]2)cc1 | inconclusive: 11.2 µM [inhibitor, partial curve, poor fit] |  |
| CCOC(=O)c1cnc(NCc2ccc(OC)cc2OC)c2ccccc12 | inconclusive: 20 µM [inhibitor, single point] |  |
| Cc1nc([C@H]2CCN(Cc3cn(C)c4ccccc34)C[C@H]2NC(=O)C2CC2)n[nH]1 | inconclusive: 5.62 µM [inhibitor, single point] |  |
| Cc1nnc(-c2cc(NCc3cccs3)ccn2)n1C1CCCCC1 | inconclusive: 2.51 µM [inhibitor, single point] |  |
| CN(C)C(=O)c1ccnc(-c2nnc3ccc(NCCN4CCOCC4)nn23)c1 | inactive |  |
| O=C(NCc1ccccn1)C1CCN(Cc2cc3n(n2)CCCNC3)CC1 | inactive |  |
| O=C(COc1cccc(-n2cnnc2)c1)NC1CCCc2c1[nH]c1ccccc21 (configuration not stated) | inconclusive: 5.01 µM [inhibitor, partial curve, poor fit] |  |
| O=c1n(-c2ccc(F)cc2F)nc2n1CCN(CC1CCCCC1)C2 | inactive |  |

| Compound | Potency | activity, negative = inhibition |
| --- | --- | --- |
| Cc1ccc(C(=O)N2C[C@@H](COc3ccccc3)[C@H](C(N)=O)C2)cc1 | inconclusive: 17.8 µM [inhibitor, single point] |  |
| CC(C)c1noc(C2CCCN(C(=O)NC(C)(C)C)CCC(=O)NCC2)n1 (configuration not stated) | inactive |  |
| Cc1cccc(NC(=O)Cn2c(=O)n(CCc3ccccc3)c(=O)c3sc4ccccc4c32)c1 | inconclusive: 20 µM [inhibitor, partial curve, poor fit] |  |
| O=C1NC(C(=O)NCCc2ccccc2)Cn2cccc21 (configuration not stated) | inactive |  |
| CN1CCCN(C(=O)c2ccco2)c2ccccc21 | inconclusive: 8.91 µM [inhibitor, single point] |  |
| Cc1ccsc1C(=O)NC1CCN(c2cnn(Cc3ccccc3)c(=O)c2)CC1 | inconclusive: 14.1 µM [inhibitor, partial curve, poor fit] |  |
| Cc1cc(C)c(CNC(=O)c2cc(-c3ccccc3)cc3c2OCCN3C)c(=O)[nH]1 | inactive |  |
| CS(=O)(=O)N1CC(C(=O)Nc2ccc(N3CCOCC3)cc2)C2(CCCCC2)C1 (configuration not stated) | inactive |  |
| CCn1nccc1C(=O)NC1CCN(c2cc(-c3ccccc3)[nH]n2)CC1 | inconclusive: 1.41 µM [inhibitor, partial curve, poor fit] |  |
| Cc1cn2nc(C(=O)NC(C)c3ccccc3)cc2c(N2CCCC2)n1 (configuration not stated) | inconclusive: 3.98 µM [inhibitor, partial curve] |  |
| C[C@H]1[C@@H]2[C@@H](O)C([C@H](C)C(=O)NCc3ccco3)CC[C@@]2(C)CC[C@@H]1NC(=O)CC(C)(C)C (some centres not stated) | inconclusive: 2 µM [inhibitor, partial curve, poor fit] |  |
| COc1ccc(C(=O)N2CC(c3noc(C4CCCN4CC4CC4)n3)C2)cc1 (configuration not stated) | inconclusive: 2.51 µM [inhibitor, partial curve] |  |
| O=C(C[C@@H]1CCNC[C@@H]1Cc1cc(CSc2ccccc2)on1)NCCN1CCOCC1 | inactive |  |
| O=C(C1CCN(c2nc(-c3ccccc3)nc3c2CCC3)CC1)N1CCC(CO)C1 (configuration not stated) | inconclusive: 12.6 µM [inhibitor, partial curve, poor fit] |  |
| Cc1noc(C)c1-c1cc2cc(C(C)C)oc2c(N2CCN(C)CC2)n1 | inconclusive: 5.62 µM [inhibitor, full curve] |  |
| COc1cc(NC(=O)c2cc(C3CC3)nc3c2c(C)nn3-c2ccc(C)cc2)cc(OC)c1 | inconclusive: 11.2 µM [inhibitor, single point] |  |
| COc1cccc(NC(=O)N2CC(c3nnc(-c4ccncc4)o3)C3(CCOCC3)C2)c1 (configuration not stated) | inconclusive: 5.01 µM [inhibitor, partial curve] |  |
| CCOC(=O)Cn1c(=O)n(C2CCCCC2)c2nc(-c3ccccc3Cl)nc(C(N)=O)c21 | inconclusive: 12.6 µM [inhibitor, partial curve, poor fit] |  |
| COc1cc(-c2nc(-c3c(C)noc3C)cc3cc(CN(C)C)oc23)ccn1 | inconclusive: 3.16 µM [inhibitor, partial curve, poor fit] |  |
| Cn1cc(CN2C[C@@H](F)[C@@H](OCc3nc4ccc(C#N)cc4[nH]3)C2)c2ccccc21 | inconclusive: 2 µM [inhibitor, partial curve, poor fit] |  |

Reference: PubChem BioAssay AID1347417 (National Center for Advancing Translational Sciences (NCATS), 2020)
